This note sets out measurements from PMC4336329 (PLoS ONE, 2015).

Among all 310,000 compounds or so, about 2,200 (0.71%) showed an effect of 50% or more. Effects have a minus sign here. Some of the results follow. Where a SMILES comes first, the peptide text is derived from it. The star is where a group is joined. Cbz = O=C(OCc1ccccc1)*

The target of this assay is human ether-à-go-go-related gene (hERG) potassium channel (human, UniProt Q12809). Briefly: primary screen, population patch clamp on CHO cells stably expressing hERG.
Chain of human ether-à-go-go-related gene (hERG) potassium channel (Q12809 whole entry, looked up): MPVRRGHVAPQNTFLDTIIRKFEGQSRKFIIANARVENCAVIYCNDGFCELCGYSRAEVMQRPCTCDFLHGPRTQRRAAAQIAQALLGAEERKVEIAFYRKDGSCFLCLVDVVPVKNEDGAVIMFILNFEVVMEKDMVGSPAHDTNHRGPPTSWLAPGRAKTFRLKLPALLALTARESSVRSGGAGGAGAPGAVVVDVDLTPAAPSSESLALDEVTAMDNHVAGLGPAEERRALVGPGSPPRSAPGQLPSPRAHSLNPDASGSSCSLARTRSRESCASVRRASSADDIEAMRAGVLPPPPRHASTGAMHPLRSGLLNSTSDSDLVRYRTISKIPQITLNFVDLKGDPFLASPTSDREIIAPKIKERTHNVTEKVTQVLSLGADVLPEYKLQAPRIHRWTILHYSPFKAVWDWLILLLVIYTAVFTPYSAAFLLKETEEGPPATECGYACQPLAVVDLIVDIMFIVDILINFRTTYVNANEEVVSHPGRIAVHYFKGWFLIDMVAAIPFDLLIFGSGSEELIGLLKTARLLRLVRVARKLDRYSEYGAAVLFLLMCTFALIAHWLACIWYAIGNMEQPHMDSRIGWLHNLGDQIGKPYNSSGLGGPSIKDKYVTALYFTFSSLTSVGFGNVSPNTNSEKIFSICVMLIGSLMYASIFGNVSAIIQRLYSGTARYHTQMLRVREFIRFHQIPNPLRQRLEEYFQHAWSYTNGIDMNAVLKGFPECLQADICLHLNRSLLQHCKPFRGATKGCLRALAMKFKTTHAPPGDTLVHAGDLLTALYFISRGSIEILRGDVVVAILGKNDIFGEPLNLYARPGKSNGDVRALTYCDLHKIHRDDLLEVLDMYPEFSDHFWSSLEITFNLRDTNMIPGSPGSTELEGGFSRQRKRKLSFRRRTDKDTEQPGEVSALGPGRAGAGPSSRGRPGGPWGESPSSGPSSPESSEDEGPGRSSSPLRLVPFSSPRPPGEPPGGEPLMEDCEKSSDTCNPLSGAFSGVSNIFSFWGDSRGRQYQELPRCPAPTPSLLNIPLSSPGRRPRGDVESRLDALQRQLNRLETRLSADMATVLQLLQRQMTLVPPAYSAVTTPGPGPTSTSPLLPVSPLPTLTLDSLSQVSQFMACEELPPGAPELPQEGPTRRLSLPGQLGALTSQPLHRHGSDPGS
Take `CC(C)c1ccc(NC(=O)COC(=O)CCC(=O)c2cccs2)cc1`: the “hERG current change (%, negative = inhibition) at 1uM” value is 13.6%.

In the case of `O=C(O)c1cc(/C=N\O)ccc1OCc1ccccc1`, the “hERG current change (%, negative = inhibition) at 1uM” value was 14.8%.

As for `O=C(Nc1ncccc1O)c1ccc(S(=O)(=O)Nc2ccccc2)cc1`, the “hERG current change (%, negative = inhibition) at 1uM” value amounted to 12.8%.

`Cc1cc(C)cc(NC(=O)c2cccc(NC(=O)C3C4CC5OC(=O)C3C5C4)c2)c1` (stereo not drawn): the “hERG current change (%, negative = inhibition) at 1uM” value is given as -8.25%.

For the compound `COc1ccccc1C(=O)NCC(=O)OCC(=O)Nc1nnc(-c2ccccc2)o1`, the “hERG current change (%, negative = inhibition) at 1uM” value came out at 9.54%.

As to `CCN(CC(=O)Nc1ccc(NC(C)=O)cc1)C(=O)C1(c2ccccc2)CC1`, the “hERG current change (%, negative = inhibition) at 1uM” value was 1.51%.

In the case of `Cn1c(=O)n(C/C=C/c2ccccc2)c(=O)c2c1nc1n2CCCN1c1ccc(F)cc1`, the “hERG current change (%, negative = inhibition) at 1uM” value came out at 10.8%.

On to `COc1ccc(OC)c(-c2cc(C(=O)Nc3cc(C)on3)no2)c1`, for which the “hERG current change (%, negative = inhibition) at 1uM” value stood at 19.9%.

For `O=S(=O)(c1ccc(O)cc1)c1ccc(O)cc1`, the “hERG current change (%, negative = inhibition) at 1uM” value came to 13.2%.

With `Cc1ccc(-c2c[n+](CC(=O)Nc3nc(-c4ccc(F)cc4)cs3)c3n2CCC3)cc1.[Cl-]`, the “hERG current change (%, negative = inhibition) at 1uM” value is recorded as -28.7%.

With `CN1C(=O)C(=O)/C(=C(/O)c2ccccc2)C1c1ccc([N+](=O)[O-])cc1` (stereo not drawn), the “hERG current change (%, negative = inhibition) at 1uM” value was found to be 22.3%.

Regarding `O=c1c2[nH]cnc2n(-c2ccccc2)c(=O)n1Cc1ccccc1`, the “hERG current change (%, negative = inhibition) at 1uM” value was found to be 4.96%.

`CCc1cccc(NC(=O)C2CCCN2S(=O)(=O)c2cccc3cccnc23)c1` (stereo not drawn): the “hERG current change (%, negative = inhibition) at 1uM” value worked out at 0.771%.

For the compound `CCOC(=O)c1nn(-c2ccccc2)c2nc(-c3ccc(OC)cc3)c(C#N)c(=O)n12`, the “hERG current change (%, negative = inhibition) at 1uM” value came out at 13.9%.

On to `COc1cccc(C2CC(C(F)(F)F)n3ncc(C(=O)NCC4CCCO4)c3N2)c1` (stereo not drawn), for which the “hERG current change (%, negative = inhibition) at 1uM” value was 6.7%.

Consider `Cc1ccc(S(=O)(=O)N2CCC(C(=O)N/N=C/c3ccncc3)CC2)cc1`, for which the “hERG current change (%, negative = inhibition) at 1uM” value is 1.33%.

With `COC(=O)C1=C(c2ccc(F)cc2F)C[C@@H]2CC[C@H]1N2C(=O)NC(C)C`, the “hERG current change (%, negative = inhibition) at 1uM” value is 10.5%.

As for `CCOC(=O)c1c(NC(=O)CN2CCCCC2)sc2c1CCC(C=O)=C2Cl`, the “hERG current change (%, negative = inhibition) at 1uM” value was found to be 16.2%.

Consider `COc1cccc(OC)c1C(=O)Nc1sc2c(c1C(N)=O)CCCC2`, for which the “hERG current change (%, negative = inhibition) at 1uM” value is given as 7.47%.

Regarding `Cc1ccc2ncnc(Nc3cccc(C(=O)O)c3)c2c1.Cl`, the “hERG current change (%, negative = inhibition) at 1uM” value was 10.2%.

Consider `CCOC(=O)C1=NN(c2ccc([N+](=O)[O-])cc2)CC1C(=O)OC` (stereo not drawn), for which the “hERG current change (%, negative = inhibition) at 1uM” value is recorded as 2.54%.

Take `O=C(CN1C(=O)C2C3C=CC(C3)C2C1=O)Nc1ccc(S(=O)(=O)Nc2nccs2)cc1` (stereo not drawn): the “hERG current change (%, negative = inhibition) at 1uM” value was 16.6%.

`O=C(Cn1nc(-c2ccccc2)ccc1=O)NCC1CCCO1` (stereo not drawn): the “hERG current change (%, negative = inhibition) at 1uM” value is -10.2%.

For the compound `COC(=O)CCC(NC(=O)OCc1ccccc1)C(=O)NC(CC(C)C)C(=O)OC` (stereo not drawn) (Cbz-Glu(OMe)-Leu-OMe; configuration not given here), the “hERG current change (%, negative = inhibition) at 1uM” value is listed as 4.47%.

As for `Cc1ccc(C(=O)Nc2ccc(N3CCN(C(=O)c4ccco4)CC3)cc2)c(Cl)c1`, the “hERG current change (%, negative = inhibition) at 1uM” value is recorded as 11.2%.

For `CCOC(=O)CSC1=N/C(=C\c2cc(OC)c(OC)c(OC)c2)C(=O)N1C`, the “hERG current change (%, negative = inhibition) at 1uM” value stood at 2.6%.

Consider `Cc1ccc(NC(=O)CN2C(=O)CCSc3ccc(S(=O)(=O)N4CCCC4)cc32)cc1C`, for which the “hERG current change (%, negative = inhibition) at 1uM” value was 14.8%.

`CC(NC(=O)c1ccccc1)C(=O)OCC(=O)c1ccc(Br)cc1` (stereo not drawn): the “hERG current change (%, negative = inhibition) at 1uM” value came out at 2.14%.

In the case of `Cc1nc2ccccc2cc1C(=O)N/N=C/c1cccs1`, the “hERG current change (%, negative = inhibition) at 1uM” value is given as 11.4%.

As to `Cc1ccc(C(=O)OCC(=O)Nc2ccccc2)cc1NC(=O)c1ccco1`, the “hERG current change (%, negative = inhibition) at 1uM” value turned out to be 12.3%.

`O=C(NCc1ccc2c(c1)OCO2)C12CN(Cc3ccccc3)CC1C(c1cccc([N+](=O)[O-])c1)=NO2` (stereo not drawn): the “hERG current change (%, negative = inhibition) at 1uM” value worked out at 11.3%.

Turning to `Cc1cc(C)c2c(=O)[nH]n(C(C)C)c2n1`, the “hERG current change (%, negative = inhibition) at 1uM” value was 13.8%.

Take `COc1ccc2c3c1OC1CC(O)C=CC31CCN(C)C2` (stereo not drawn): the “hERG current change (%, negative = inhibition) at 1uM” value came to 2.71%.

Consider `C=C1Cn2c(nnc2-c2ccc(Cl)cc2)S1`, for which the “hERG current change (%, negative = inhibition) at 1uM” value is on record as -4.33%.

For `CC1(c2ccc(Cl)cc2)NC(=O)N(CC(=O)Nc2ccc(F)cc2)C1=O` (stereo not drawn), the “hERG current change (%, negative = inhibition) at 1uM” value is recorded as -3.15%.

`Nc1ccc2ncccc2c1`: the “hERG current change (%, negative = inhibition) at 1uM” value came out at 7.7%.

For the compound `Cc1ccc(CSc2nnc(SCC(=O)N/N=C/c3ccccc3OCC(=O)O)s2)cc1`, the “hERG current change (%, negative = inhibition) at 1uM” value was 4.62%.

Take `c1ccc(-c2csc(NC3=NCCCCC3)n2)cc1`: the “hERG current change (%, negative = inhibition) at 1uM” value is -2.25%.

Take `O=C(CSc1nnc(-c2cccnc2)n1Cc1ccco1)N1CCc2ccccc21`: the “hERG current change (%, negative = inhibition) at 1uM” value is listed as -14.3%.

For `O=C(COc1ccc(S(=O)(=O)N2CCCCC2)cc1)NC1CCCCC1`, the “hERG current change (%, negative = inhibition) at 1uM” value was 9.42%.

Regarding `O=C(CS(=O)CC(=O)Nc1cccnc1)Nc1ccc(F)cc1` (stereo not drawn), the “hERG current change (%, negative = inhibition) at 1uM” value stood at 21.6%.

Take `CCOC(=O)C1(CCc2ccccc2)CCN(C(=O)CCc2cnccn2)CC1`: the “hERG current change (%, negative = inhibition) at 1uM” value was -8.1%.

For the compound `COc1ccc([N+](=O)[O-])c(S(=O)(=O)c2ccc(Cl)cc2)n1`, the “hERG current change (%, negative = inhibition) at 1uM” value was found to be 15%.

As to `COc1cc2[nH]c(=S)n(Cc3ccc(C)cc3)c(=O)c2cc1OC`, the “hERG current change (%, negative = inhibition) at 1uM” value was 17.6%.

In the case of `CCN1C(=O)Cc2cc(S(=O)(=O)NCCc3ccccc3)ccc21`, the “hERG current change (%, negative = inhibition) at 1uM” value worked out at 16.1%.

Turning to `COc1cc(/C=C(\C#N)c2nc3ccccc3[nH]2)cc(Br)c1OCc1ccc(F)cc1`, the “hERG current change (%, negative = inhibition) at 1uM” value is listed as -3.28%.

Take `CCC(C)(C)NC(=O)Nc1cc(Cl)ccc1OC`: the “hERG current change (%, negative = inhibition) at 1uM” value turned out to be 11.2%.

Regarding `CC1=C(C(=O)Nc2ccc(C(=O)NC(C)c3ccccc3)cc2)SCCO1` (stereo not drawn), the “hERG current change (%, negative = inhibition) at 1uM” value worked out at 12.2%.

In the case of `O=S1(=O)CCOC[C@H](c2ccccc2)N1Cc1cccc(Cl)c1`, the “hERG current change (%, negative = inhibition) at 1uM” value came to 15.1%.

As for `O=C(CN(C(=O)c1csnn1)c1ccccc1C(F)(F)F)NCc1ccccc1`, the “hERG current change (%, negative = inhibition) at 1uM” value is given as 12%.

Turning to `CCCn1cc(CN2CCN(Cc3ccc(C)o3)C(CCO)C2)c(C)n1` (stereo not drawn), the “hERG current change (%, negative = inhibition) at 1uM” value amounted to 7.78%.

Turning to `COC(=O)CCC(NS(=O)(=O)OCC(Cl)(Cl)Cl)c1ccccc1` (stereo not drawn), the “hERG current change (%, negative = inhibition) at 1uM” value is recorded as 6.34%.

As to `CCN(CC)S(=O)(=O)c1ccc(N2CCOCC2)c(NC(=O)c2ccccc2F)c1`, the “hERG current change (%, negative = inhibition) at 1uM” value is 7.36%.

In the case of `CCOC(=O)N1CCN(CC(O)COCc2cc(OC)c(OC)c(OC)c2)CC1.Cl` (stereo not drawn), the “hERG current change (%, negative = inhibition) at 1uM” value was found to be 16.3%.
